# Laboratory results as given in the supplement of paper PMC8728848.
# Some of the results follow.
# B1: Cp ZmpB (Clostridium perfringens), Q0TR08 (protein)
# chain: MNKRKIAAIILATMITNLSATTIDVLAQELNTKNNSKVEVSHDDESHQARVSKFDLYNSDKLDAYNQEFQVSRSNIKSINNNGGKYNSSTIDKAIDGNLETHWETGKPNDANFTNEVVVTFNEITNIDRIVYSARRDSARGKGFAKEFEIYASLKDEGDDFNLVSSGEYTESTRDLVEIKFNPTDFKRLKFKFKKADQNWASAAEFMFYKEDKLNEKFNGLFTDSSMNKVSEEFNTLEKLNAFENELKDHPIYDLYKEGLNNARAILTETSENPTKATLGQITYNLNDDYNNQYRMPYKNIKAIKNNGRHYAAQNIEKAIDNDVNTYWETGTLNSSSFNNEVEVEFNDLVTLDRIVYGSRQSDLKGFAEEVYIYASRTSKGDTYKLVATGAHEATKGLVEAKFEPTEFKRVKFKFKKSKQNSATLNELMFYKPDEVYSSIPKLFTDGTMSELSEEFNSLEKINAFKEKAKNHPLYNDFNETIELAESLISNPRKEDVLELEMRGDSISEAKKRKVWNFQDWQITGLSARAGDKITVYVDVAEGDPTPTLLYKQSLTQHGGATSFQLKPGKNEITIPEINYESNGIPKDVIQGGDLFFTNYKSDSQKRAPKVRIEGASKYPVFILGKSDENEVMKELEAYVEKIKAEPKTTPNIFAVSSNKSLEFVQATYALDWYKKNNKTPKYTAEQWDQYIADAMGFWGFDNSKDVNSDFNFRIMPMVKNLSGGAFMNAGNGVIGIRPGNQDAILAANKGWGVAHELGHNFDTGGRTIVEVTNNMMPLFFESKYKTKTRITDQNIWENNTYPKVGLDDYSNNELYNKADSTHLAQLAPLWQLYLYDNTFYGKFERQFRERDFGNKNREDIYKSWVVAASDAMELDLTEFFARHGIRVDDKVKEDLAKYPKPDKKIYYLNDLAMNYKGDGFTENAKVSVSTSGSNGNIKLSFSVDDENKDNILGYEIRRDGKYVGFTSNDSFVDTKSNLDEDGVYVVTPYDRKLNTLNPIEVNALQPTLSVNPVITLALGEEFNEEEYIVAKDIKGNSLSESVKVKSSNVNTSKVGEYEVLYSLEDSKGNEYTKTSKVNVVSRKEYMSDLTPKQSSNGWGTVRKDKSISGGVIGLTRDGDFVDYNKGLGLHSNAEYVYDLEGKDYDYFESYVGVDKAMSSRPASSVIFKVLVDGEEKFNSGVMRSTTPQKYVKVDVKNAKELKLIVNDAGDGDSSDHASFGDAKLATLSSKPIIKGENLAYSMDEKVDLMKGITATDIEDGNITSKVQIKSSDFVEGKSGIFTVVYSVTDSDGLTSECSRTIAVTDKETQLSDLNWKSATIGSGSVRKDRAVSGNQIRLLNEDNSVETFAKGIGTHSYSEIVYNSEGYDIFDTWVGIDRHVADKKVSSVKFKVYVDGELKAETDVMRIDTPKKRLVVDVRNSKEIKLVVDVADNGNNWDHADWADAKFRNLAEYDASELNKAIEEAKKLDLNNYTEESSEALKNAISKGEEALLSKDKETINSALEELNKEMNSLVKVDLNAVINIPDKYLLKSIQNQLNKTGDITLGDMYSLTTLTLSGVEDLTGLENAKNLETLNMDYNEVKDLRPLSKLKKLNTLNAQEQFIAAGELKPSNGKVIGDSKVYNREGKNVAKTIRVVDKNGNTILEQDAKDEFTINTKDLSSGLYGVHVLFEDEGFSGVMFYLFNV
# Key:
# Assay in all cases: glycan array binding signal (z-score within array); higher = stronger binding
# Details in all cases: glycan notation: IUPAC condensed, linker removed
# [1] = target: Gal(b1-4)GlcNAc(b1-2)Man(a1-3)[Gal(b1-4)GlcNAc(b1-2)Man(a1-6)]Man(b1-4)GlcNAc(b1-4)GlcNAc
# Method in brief: (§1)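 Glycan array binding is given as a within-array Z-score, which can be read as non-binding when negative. The arrays, 3228 of them, came from the Consortium for Functional Glycomics database and were retained only where the protein sequence was available. Z-scores were averaged across arrays of the same protein sequence at different concentrations or buffers and across linkers.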
# [2] = target: Gal(b1-4)GlcNAc(b1-2)Man(a1-3)[Gal(b1-4)GlcNAc(b1-2)Man(a1-6)]Man(b1-4)GlcNAc(b1-4)[Fuc(a1-6)]GlcNAc
# Method in brief: as §1
# [3] = target: Gal(b1-4)GlcNAc(b1-2)Man(a1-3)[Gal(b1-4)GlcNAc(b1-2)Man(a1-6)][Gal(b1-4)GlcNAc(b1-4)]Man(b1-4)GlcNAc(b1-4)[Fuc(a1-6)]GlcNAc
# Method in brief: as §1
# [4] = target: Gal(b1-4)GlcNAc(b1-2)Man(a1-3)[Gal(b1-4)GlcNAc(b1-2)Man(a1-6)][GlcNAc(b1-4)]Man(b1-4)GlcNAc(b1-4)[Fuc(a1-6)]GlcNAc
# Method in brief: as §1
# [5] = target: Gal(b1-4)GlcNAc(b1-2)Man(a1-3)[GlcNAc(b1-2)Man(a1-6)]Man(b1-4)GlcNAc(b1-4)GlcNAc
# Method in brief: as §1
# [6] = target: Gal(b1-4)GlcNAc(b1-2)Man(a1-3)[GlcNAc(b1-4)][Gal(b1-4)GlcNAc(b1-2)Man(a1-6)]Man(b1-4)GlcNAc(b1-4)GlcNAc
# Method in brief: as §1
# [7] = target: Gal(b1-4)GlcNAc(b1-2)Man(a1-3)[Man(a1-6)]Man(b1-4)GlcNAc(b1-4)GlcNAc
# Method in brief: as §1
# [8] = target: Gal(b1-4)GlcNAc(b1-2)Man(a1-6)Man(b1-4)GlcNAc(b1-4)GlcNAc
# Method in brief: as §1
# [9] = target: Gal(b1-4)GlcNAc(b1-2)Man(a1-6)[GlcNAc(b1-2)Man(a1-3)]Man(b1-4)GlcNAc(b1-4)GlcNAc
# Method in brief: as §1
# [10] = target: Gal(b1-4)GlcNAc(b1-2)Man(a1-6)[Man(a1-3)]Man(b1-4)GlcNAc(b1-4)GlcNAc
# Method in brief: as §1
# [11] = target: Gal(b1-4)GlcNAc(b1-2)[Gal(b1-4)GlcNAc(b1-4)]Man(a1-3)[Gal(b1-4)GlcNAc(b1-2)Man(a1-6)]Man(b1-4)GlcNAc(b1-4)GlcNAc
# Method in brief: as §1
# [12] = target: Gal(b1-4)GlcNAc(b1-2)[Gal(b1-4)GlcNAc(b1-4)]Man(a1-3)[Gal(b1-4)GlcNAc(b1-2)[Gal(b1-4)GlcNAc(b1-6)]Man(a1-6)]Man(b1-4)GlcNAc(b1-4)GlcNAc
# Method in brief: as §1
# [13] = target: Gal(b1-4)GlcNAc(b1-2)[Gal(b1-4)GlcNAc(b1-4)]Man(a1-3)[GlcNAc(b1-4)][Gal(b1-4)GlcNAc(b1-2)Man(a1-6)]Man(b1-4)GlcNAc(b1-4)GlcNAc
# Method in brief: as §1
# [14] = target: Gal(b1-4)GlcNAc(b1-2)[Gal(b1-4)GlcNAc(b1-4)]Man(a1-3)[GlcNAc(b1-4)][Gal(b1-4)GlcNAc(b1-2)[Gal(b1-4)GlcNAc(b1-6)]Man(a1-6)]Man(b1-4)GlcNAc(b1-4)GlcNAc
# Method in brief: as §1
# [15] = target: Gal(b1-4)GlcNAc(b1-2)[Gal(b1-4)GlcNAc(b1-6)]Man(a1-6)[Gal(b1-4)GlcNAc(b1-2)Man(a1-3)]Man(b1-4)GlcNAc(b1-4)GlcNAc
# Method in brief: as §1
# [16] = target: Gal(b1-4)GlcNAc(b1-2)[Gal(b1-4)GlcNAc(b1-6)]Man(a1-6)[Gal(b1-4)GlcNAc(b1-2)Man(a1-3)]Man(b1-4)GlcNAc(b1-4)[Fuc(a1-6)]GlcNAc
# Method in brief: as §1
# [17] = target: Gal(b1-4)GlcNAc(b1-2)[Gal(b1-4)GlcNAc(b1-6)]Man(a1-6)[GlcNAc(b1-4)][Gal(b1-4)GlcNAc(b1-2)Man(a1-3)]Man(b1-4)GlcNAc(b1-4)GlcNAc
# Method in brief: as §1
# [18] = target: Gal(b1-4)GlcNAc(b1-2)[Gal(b1-4)GlcNAc(b1-6)]Man(a1-6)[GlcNAc(b1-4)][Gal(b1-4)GlcNAc(b1-2)[Gal(b1-4)GlcNAc(b1-4)]Man(a1-3)]Man(b1-4)GlcNAc(b1-4)[Fuc(a1-6)]GlcNAc
# Method in brief: as §1
# [19] = target: Gal(b1-4)GlcNAc(b1-3)Gal(b1-3)GalNAc
# Method in brief: as §1
# [20] = target: Gal(b1-4)GlcNAc(b1-3)Gal(b1-3)GlcNAc
# Method in brief: as §1
# [21] = target: Gal(b1-4)GlcNAc(b1-3)Gal(b1-4)Glc
# Method in brief: as §1
# [22] = target: Gal(b1-4)GlcNAc(b1-3)Gal(b1-4)GlcNAc
# Method in brief: as §1
# [23] = target: Gal(b1-4)GlcNAc(b1-3)Gal(b1-4)GlcNAc(b1-2)Man(a1-3)[Gal(b1-4)GlcNAc(b1-3)Gal(b1-4)GlcNAc(b1-2)Man(a1-6)]Man(b1-4)GlcNAc(b1-4)GlcNAc
# Method in brief: as §1
binder,measurement,setting,value
B1,glycan array binding signal (z-score),[1],0.038
same,glycan array binding signal (z-score),[2],-0.045
same,glycan array binding signal (z-score),[3],-0.446
same,glycan array binding signal (z-score),[4],-0.407
same,glycan array binding signal (z-score),[5],-0.22
same,glycan array binding signal (z-score),[6],0.434
same,glycan array binding signal (z-score),[7],-0.033
same,glycan array binding signal (z-score),[8],0.106
same,glycan array binding signal (z-score),[9],-0.315
same,glycan array binding signal (z-score),[10],0.035
same,glycan array binding signal (z-score),[11],-0.164
same,glycan array binding signal (z-score),[12],-0.21
same,glycan array binding signal (z-score),[13],0.051
same,glycan array binding signal (z-score),[14],-0.025
same,glycan array binding signal (z-score),[15],-0.34
same,glycan array binding signal (z-score),[16],0.112
same,glycan array binding signal (z-score),[17],-0.114
same,glycan array binding signal (z-score),[18],-0.088
same,glycan array binding signal (z-score),[19],-0.341
same,glycan array binding signal (z-score),[20],1.39
same,glycan array binding signal (z-score),[21],-0.317
same,glycan array binding signal (z-score),[22],0.094
same,glycan array binding signal (z-score),[23],-0.213
